Assay results reported in the supplement of paper PMC8728848.
This is one part of the list.

What was measured:
Assay in all cases: glycan array binding signal (z-score within array); higher = stronger binding
Conditions in all cases: glycan notation: IUPAC condensed, linker removed
[1] = target: Fuc(a1-2)Gal(b1-4)GlcNAc(b1-3)Gal(b1-4)GlcNAc(b1-2)Man(a1-3)[Fuc(a1-2)Gal(b1-4)GlcNAc(b1-3)Gal(b1-4)GlcNAc(b1-2)Man(a1-6)]Man(b1-4)GlcNAc(b1-4)GlcNAc
Outline: (§1)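 From the Consortium for Functional Glycomics database, 3228 arrays were curated, keeping only those whose protein sequence was available. Binding is given as a within-array Z-score averaged across arrays sharing a protein sequence and across linkers. Negative Z-scores can be read as non-binding.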

[2] = target: Fuc(a1-2)Gal(b1-4)GlcNAc(b1-3)Gal(b1-4)GlcNAc(b1-3)Gal(b1-4)GlcNAc
Outline: as §1

[3] = target: Fuc(a1-2)Gal(b1-4)GlcNAc(b1-3)GalNAc
Outline: as §1

[4] = target: Fuc(a1-2)Gal(b1-4)GlcNAc(b1-3)[Fuc(a1-2)Gal(b1-4)GlcNAc(b1-6)]GalNAc
Outline: as §1

[5] = target: Fuc(a1-2)Gal(b1-4)GlcNAc(b1-3)[Fuc(a1-3)[Gal(b1-4)]GlcNAc(b1-6)]Gal(b1-4)Glc
Outline: as §1

[6] = target: Fuc(a1-2)Gal(b1-4)GlcNAc(b1-6)GalNAc
Outline: as §1

[7] = target: Fuc(a1-2)Gal(b1-4)GlcNAc6S
Outline: as §1

[8] = target: Fuc(a1-2)Gal(b1-4)[Fuc(a1-3)]GlcNAc
Outline: as §1

[9] = target: Fuc(a1-2)Gal(b1-4)[Fuc(a1-3)]GlcNAc(b1-2)Man(a1-3)[Fuc(a1-2)Gal(b1-4)[Fuc(a1-3)]GlcNAc(b1-2)Man(a1-6)]Man(b1-4)GlcNAc(b1-4)[Fuc(a1-6)]GlcNAc
Outline: as §1

[10] = target: Fuc(a1-2)Gal(b1-4)[Fuc(a1-3)]GlcNAc(b1-2)[Fuc(a1-2)Gal(b1-4)[Fuc(a1-3)]GlcNAc(b1-4)]Man(a1-3)[Fuc(a1-2)Gal(b1-4)[Fuc(a1-3)]GlcNAc(b1-2)Man(a1-6)]Man(b1-4)GlcNAc(b1-4)GlcNAc
Outline: as §1

[11] = target: Fuc(a1-2)Gal(b1-4)[Fuc(a1-3)]GlcNAc(b1-3)Gal(b1-4)[Fuc(a1-3)]GlcNAc
Outline: as §1

[12] = target: Fuc(a1-2)Gal(b1-4)[Fuc(a1-3)]GlcNAc(b1-3)Gal(b1-4)[Fuc(a1-3)]GlcNAc(b1-3)Gal(b1-4)[Fuc(a1-3)]GlcNAc
Outline: as §1

[13] = target: Fuc(a1-2)Gal(b1-4)[Fuc(a1-3)]GlcNAc(b1-3)GalNAc
Outline: as §1

[14] = target: Fuc(a1-2)Gal(b1-4)[Fuc(a1-3)]GlcNAc(b1-3)[Neu5Ac(a2-6)Gal(b1-4)GlcNAc(b1-6)]Gal(b1-4)Glc
Outline: as §1

[15] = target: Fuc(a1-2)Gal3S(b1-4)GlcNAc
Outline: as §1

[16] = target: Fuc(a1-2)Gal6S(b1-3)GlcNAc
Outline: as §1

[17] = target: Fuc(a1-2)Gal6S(b1-3)GlcNAc6S
Outline: as §1

Fuc(a1-2)Gal6S(b1-4)Glc = target: Fuc(a1-2)Gal6S(b1-4)Glc
Outline: as §1

[18] = target: Fuc(a1-2)Gal6S(b1-4)Glc6S
Outline: as §1

Fuc(a1-2)[Gal(a1-3)]Gal = target: Fuc(a1-2)[Gal(a1-3)]Gal
Outline: as §1

[19] = target: Fuc(a1-2)[Gal(a1-3)]Gal(b1-3)GalNAc
Outline: as §1

[20] = target: Fuc(a1-2)[Gal(a1-3)]Gal(b1-3)GalNAc(b1-3)Gal(a1-4)Gal(b1-4)Glc
Outline: as §1

[21] = target: Fuc(a1-2)[Gal(a1-3)]Gal(b1-3)GlcNAc
Outline: as §1

[22] = target: Fuc(a1-2)[Gal(a1-3)]Gal(b1-3)GlcNAc(b1-2)Man(a1-3)[Fuc(a1-2)[Gal(a1-3)]Gal(b1-3)GlcNAc(b1-2)Man(a1-6)]Man(b1-4)GlcNAc(b1-4)GlcNAc
Outline: as §1

[23] = target: Fuc(a1-2)[Gal(a1-3)]Gal(b1-3)GlcNAc(b1-2)Man(a1-3)[Fuc(a1-2)[Gal(a1-3)]Gal(b1-3)GlcNAc(b1-2)Man(a1-6)]Man(b1-4)GlcNAc(b1-4)[Fuc(a1-6)]GlcNAc
Outline: as §1

[24] = target: Fuc(a1-2)[Gal(a1-3)]Gal(b1-3)GlcNAc(b1-3)GalNAc
Outline: as §1

[25] = target: Fuc(a1-2)[Gal(a1-3)]Gal(b1-3)GlcNAc(b1-6)GalNAc
Outline: as §1

[26] = target: Fuc(a1-2)[Gal(a1-3)]Gal(b1-4)Glc
Outline: as §1

[27] = target: Fuc(a1-2)[Gal(a1-3)]Gal(b1-4)GlcNAc
Outline: as §1

[28] = target: Fuc(a1-2)[Gal(a1-3)]Gal(b1-4)GlcNAc(b1-2)Man
Outline: as §1

[29] = target: Fuc(a1-2)[Gal(a1-3)]Gal(b1-4)GlcNAc(b1-2)Man(a1-3)[Fuc(a1-2)[Gal(a1-3)]Gal(b1-4)GlcNAc(b1-2)Man(a1-6)]Man(b1-4)GlcNAc(b1-4)GlcNAc
Outline: as §1

[30] = target: Fuc(a1-2)[Gal(a1-3)]Gal(b1-4)GlcNAc(b1-2)Man(a1-3)[Fuc(a1-2)[Gal(a1-3)]Gal(b1-4)GlcNAc(b1-2)Man(a1-6)]Man(b1-4)GlcNAc(b1-4)[Fuc(a1-6)]GlcNAc
Outline: as §1

[31] = target: Fuc(a1-2)[Gal(a1-3)]Gal(b1-4)GlcNAc(b1-3)GalNAc
Outline: as §1

[32] = target: Fuc(a1-2)[Gal(a1-3)]Gal(b1-4)GlcNAc(b1-3)[Fuc(a1-2)[Gal(a1-3)]Gal(b1-4)GlcNAc(b1-6)]GalNAc
Outline: as §1

[33] = target: Fuc(a1-2)[Gal(a1-3)]Gal(b1-4)GlcNAc(b1-6)GalNAc
Outline: as §1

[34] = target: Fuc(a1-2)[Gal(a1-3)]Gal(b1-4)[Fuc(a1-3)]Glc
Outline: as §1

[35] = target: Fuc(a1-2)[Gal(a1-3)]Gal(b1-4)[Fuc(a1-3)]GlcNAc
Outline: as §1

B1: Epa6 (Candida glabrata), Q6DTM7_CANGB (protein)
chain: MGSSHHHHHHSSGLVPRGSHMKDDYSSSLSNNNLGWTDPTEFPLGCSPNVTTPKNGLSMELYSYDYLKSGSNPCWDAAYLDPNYPRTGYKSHRLLAKVENVAGNINFYYHAPMGCTSLFDTLPQAYNYRTPLTMTNFTMLLYGYFKPKVTGYHTFTISADDLLFVNFGAGNAFDCCKRESSADDFGNYQAYAVWGSQTAKDDLTVHLDAGLYYPIRIFFNNRDNDGALSLTLKTESDPNPVIDFSDYFYSFDDTKDGCPGLVSYDTS
- glycan array binding signal (z-score) [1]: -0.242
- glycan array binding signal (z-score) [2]: -0.301
- glycan array binding signal (z-score) [3]: 1.78
- glycan array binding signal (z-score) [4]: -0.315
- glycan array binding signal (z-score) [5]: -0.279
- glycan array binding signal (z-score) [6]: -0.062
- glycan array binding signal (z-score) [7]: -0.268
- glycan array binding signal (z-score) [8]: -0.337
- glycan array binding signal (z-score) [9]: -0.257
- glycan array binding signal (z-score) [10]: -0.215
- glycan array binding signal (z-score) [11]: -0.275
- glycan array binding signal (z-score) [12]: -0.321
- glycan array binding signal (z-score) [13]: 0.022
- glycan array binding signal (z-score) [14]: -0.223
- glycan array binding signal (z-score) [15]: -0.298
- glycan array binding signal (z-score) [16]: -0.283
- glycan array binding signal (z-score) [17]: -0.231
- glycan array binding signal (z-score) (Fuc(a1-2)Gal6S(b1-4)Glc): -0.209
- glycan array binding signal (z-score) [18]: -0.272
- glycan array binding signal (z-score) (Fuc(a1-2)[Gal(a1-3)]Gal): 0.602
- glycan array binding signal (z-score) [19]: 0.108
- glycan array binding signal (z-score) [20]: -0.034
- glycan array binding signal (z-score) [21]: 0.317
- glycan array binding signal (z-score) [22]: 0.454
- glycan array binding signal (z-score) [23]: -0.051
- glycan array binding signal (z-score) [24]: 0.138
- glycan array binding signal (z-score) [25]: -0.074
- glycan array binding signal (z-score) [26]: 0.484
- glycan array binding signal (z-score) [27]: 1.09
- glycan array binding signal (z-score) [28]: 0.197
- glycan array binding signal (z-score) [29]: 0.627
- glycan array binding signal (z-score) [30]: -0.005
- glycan array binding signal (z-score) [31]: 0.226
- glycan array binding signal (z-score) [32]: 0.469
- glycan array binding signal (z-score) [33]: -0.287
- glycan array binding signal (z-score) [34]: -0.264
- glycan array binding signal (z-score) [35]: -0.067
